The source gives no read counts; variants with many changes may rest on few reads.
B1: OR4K15 (parent)
chain: GUUAACGGUCAUAGGCCAUGGAAACUAGGAGCACCAUUUCGCUGCCAGUGAAGAAAUGAACAAAGAAAAUCUGGGCCAGGCAGGCAUCAAAAGAAAUAGUCUUGCGCUCAACCAGAAAGUCUGUAAUCAUUUUAAGGGUA
B2: LINE1-mini (parent)
chain: GGCAGAGCUCAACACAGCGUGGCAAAGUGGCUGUGGCUAGACUGCC

Variants of: B1
Experiment: self-cleavage, relative activity (ratio to wild type); higher = more cleavage; in vitro, sequencing; the parent is a self-cleaving ribozyme

Variant | self-cleavage
A110G A129G A140G | 0.08
A110G G123A U131C | 0.09
A110G U127C A134G | 0.07
A110G U130C U139C | 0.08
A110U A116G U127C | 0.02
A111G A114U A117G | 0.02
A111G A117G A126G | 0
A111G A117G U120C | 0.02
A111G A117G U122C U130G | 0
A111G A125C U130C G138A | 0.01
A111G U130C A135G | 0
A111U A125G A140G | 0.01
C112U A114U A117G | 0.02
A114C A116G A118G | 0
A114G A117G U127C | 0.09
A114G A117G U132C | 0.14
A114U U120C U139G | 0.05
A114U U122A U131C | 0.03
G115A U127C A140G | 0.09
A116G A117G U130C | 0.63

Variant | self-cleavage
A116G A118G U120C | 0.23
A116G A126G C128U | 0.07
A116G U122A U130G | 0.53
A116G U122C U127A | 1.18
A116G U122C U131A | 0.3
A117G A118G U130C U131C | 0.43
A118G A126G U131C | 0.26
A118G U120A U122C U131C A140G | 0.76
A118G U127C A134U | 0.21
A118U U122A U127C | 0.57
U122A U130C U132C | 0.84
U122C A135U G138A | 0.68
U122C U127C U131A | 0.82
U122C U139C A140U | 0.58
U124C A125U U132C | 1.58
A125G A134G A135G | 0.56
A126G A129G A135U | 1.22
A126G U130C U132C | 0.79
U130C U131C G136A | 2.13

Variants of: B2
Experiment: as above

Variant | self-cleavage
G1A A4C C8G C10A C23U C46A | 0.03
G1A A4C C18A G21A G22U A39U C46A | 0.03
G1A A4C C18A G35C | 0.05
G1A A4G A11G C42A | 0.02
G1A A4G A12U G33A A41C | 0.03
G1A A4G C13A G19U G44U | 0.04
G1A A4G G33C U34A C42U | 0.04
G1A A4G U9G C15A | 0.17
G1A A4G U34C | 0.09
G1A A4U A16G C37A C45G | 0.07
G1A A4U C15G U43G | 0
G1A A4U C31U G40C | 0.06
G1A A4U C42A | 0.12
G1A A4U G19C G22C A24G G30C C42U | 0.11
G1A A6C A14G | 0.13
G1A A6C C10A A16G | 0.05
G1A A6C C13G G22C C23A | 0.11
G1A A6C G7C | 0.06
G1A A6C G27C G30A U38A | 0.06
G1A A6C U9A G21U | 0.08
G1A A6G C8G A14U U28C G30A U38C | 0.03
G1A A6G C10U A11C C31A A39G | 0.01
G1A A6G C18A U20A U34C C37A U38G | 0.01
G1A A6G G19C | 0
G1A A6G G29C C31G | 0.05
G1A A6G U20C U32C G40C | 0.08

Variant | self-cleavage
G1A A6U C8A A25G A26C C31A | 0.8
G1A A6U C8U C23U | 0.41
G1A A6U G17U A39G | 0.06
G1A A6U U32A | 0.07
G1A A11C C42A C46A | 0.01
G1A A11C C42U G44U | 0.03
G1A A11G C18G | 0.04
G1A A11G U34C | 0.11
G1A A11U A14C G22U A39U C42G | 0.02
G1A A11U C18G | 0.05
G1A A11U G33C C37U | 0
G1A A11U U32C G44A | 0.04
G1A A12C A14G C15A | 0.05
G1A A12C C23A G33U | 0.01
G1A A12C G33U | 0.05
G1A A12G C37A C46G | 0.07
G1A A12G U43A G44C | 0.07
G1A A12U A39U G44A | 0.08
G1A A12U C23A | 0.29
G1A A12U C45A | 0.35
G1A A12U G22A U28A C31A C37U U43C | 0.03
G1A A12U G36U A39U | 0.22
G1A A14C A41C | 0.02
G1A A14C C18G U20C U32A U34C | 0.04
G1A A14C G27C | 0.15
G1A A14G C15G G19C | 0.02

Variant | self-cleavage
G1A A14G G29U G40A | 0.09
G1A A14G G36U C42A | 0.1
G1A A14G G40A U43G | 0.11
G1A A14U C23U | 0.12
G1A A14U C45U | 0.06
G1A A14U G21C | 0.2
G1A A14U G33A | 0.11
G1A A14U U32G | 0.05
G1A A16C G36C | 0.15
G1A A16G G17C G27C U38A C45U | 0.08
G1A A16U G29C G30A | 0.33
G1A A16U G36U | 0.17
G1A A24C A25G U34G G35C G44C | 0.08
G1A A24C C31A | 0.07
G1A A24U G30U | 1.72
G1A A24U G44C | 0.8
G1A A25C G29A G36A A39C | 0.08
G1A A25C G35U C37U A39G | 0
G1A A25G G30C G40C | 0.04
G1A A25U A26U A39C | 0.04
G1A A25U G40C | 0.06
G1A A26C G30A G33A C45G | 0.15
G1A A26C U34G | 0.73
G1A A26G G35A | 0.12
G1A A26U A39C | 0.11
G1A A26U G29A A39G | 0.13

Variant | self-cleavage
G1A A26U G40A C42U | 0.02
G1A A39U C46A | 2.3
G1A A41C U43C | 0.13
G1A A41U C45A | 0.11
G1A C3A A6U A14U | 0.57
G1A C3A A16C G17A G21U U38C | 0.99
G1A C3A G33C | 0.15
G1A C3U A6G | 0.36
G1A C3U C10A | 0.1
G1A C3U C10U C15G G19U C45G | 0.06
G1A C3U C18G U32G C46A | 0.2
G1A C3U G5C A6G C45G | 0.09
G1A C3U G29U G36C A41C C46U | 0.12
G1A C3U U9A A24G U32A G35C | 0.29
G1A C8A A25G | 0.15
G1A C8A C10U A24U A41C | 0.14
G1A C8A C13A G30U | 0.92
G1A C8A C15G G33C C46G | 0.38
G1A C8A C23A | 0.37
G1A C8A G17C G22A | 0.77
G1A C8G A24G | 0.1
G1A C8G C15A A26U | 0.03
G1A C8G C15A C45U | 0.4
G1A C8G G29U | 0.21
G1A C8U A12G | 0.07
G1A C8U C15U A24C | 0.05

Variant | self-cleavage
G1A C8U C18G G19C G44U | 0.25
G1A C8U G29U | 0.3
G1A C10A A14C G30A | 0
G1A C10A A16U C37U U38A A39G | 0.05
G1A C10A A26C A39U A41U | 0.58
G1A C10A A26U C37U U43C | 0.02
G1A C10A A39C | 0
G1A C10A C13A G27C | 0.05
G1A C10A C23U | 0.13
G1A C10A C37U A39G | 0.03
G1A C10A G36A | 0.01
G1A C10A G40A | 0
G1A C10A G40C | 0.04
G1A C10A U34G | 0.07
G1A C10G A12C G19C C45A | 0.01
G1A C10G A41G | 0.04
G1A C10G C15U A25C U32A U43C | 0.01
G1A C10G G22U C37U | 0.04
G1A C10G G36A G44U | 0
G1A C10G U32C | 0.08
G1A C10U A11G | 0.03
G1A C10U A16G | 0.16
G1A C13A A26C G27U G44C | 0.12
G1A C13A C31G G40C | 0.02

— the RNAGym collection of RNA variant scans (doi:10.7554/elife.90254)
